In article PMC12820563, “FoxP3 forms a head-to-head dimer in vivo and stabilizes its multimerization on adjacent microsatellites”:
Some of the results follow.

molecular target: T1, MBP-FoxP1dN (Mus musculus, UniProt P58462 326-579); experiment: PD-seq (MBP pull-down with sequencing); 20 mM Tris-HCl pH 7.5, 100 mM NaCl, 1.5 mM MgCl2, 0.4 uM protein, 0.1 uM dsDNA library, 30 min, room temperature, amylose pull-down; high values mean tight binding; conditions: protein: recombinant; tags: His6-MBP; chain copies: 2; dsDNA, one strand shown
T1 sequence: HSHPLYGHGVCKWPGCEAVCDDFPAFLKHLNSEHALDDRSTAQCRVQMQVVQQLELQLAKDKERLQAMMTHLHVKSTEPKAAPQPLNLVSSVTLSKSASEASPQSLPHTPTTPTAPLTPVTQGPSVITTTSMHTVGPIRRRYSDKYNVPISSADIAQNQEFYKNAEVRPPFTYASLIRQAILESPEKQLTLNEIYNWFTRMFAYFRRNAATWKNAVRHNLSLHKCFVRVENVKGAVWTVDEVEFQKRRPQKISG
Outline: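 Protein and DNA were mixed at 0.4 µM and 0.1 µM and held for 30 min at room temperature in Tris pH 7.5 buffer with NaCl and MgCl2; the protein was a His6-MBP-tagged, N-terminally truncated mouse FoxP3 or FoxP1 fragment from E. coli, and the DNA a Klenow-filled double-stranded degenerate library. Amylose resin captured the complexes, which were washed three times. Binding is read as reads-per-million enrichment of pull-down versus input after Illumina sequencing, with replicates pooled.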

Row | Sequence | binding signal
1 | GATGATTGTTCTCCCAGCTGATGAATTGTATTCATCGAGTAAACAAATTTTCCTAATCTTTCTGTTCAAGCGCCATCTAC | 1.42 RPM ratio (pull-down/input)
2 | GATGATTGTTCTCCCAGCTGATGAATTTGGGCTTTCGAGTAAACAAATTTTCCTAATCTTTCTGTTCAAGCGCCATCTAC | 0.904 RPM ratio (pull-down/input)
3 | GATGATTGTTCTCCCAGCTGATGAATTCGACATTTCGAGTAAACAAATTTTCCTAATCTTTCTGTTCAAGCGCCATCTAC | 0.853 RPM ratio (pull-down/input)
4 | GATGATTGTTCTCCCAGCTGATGAATTGAACCTGTCGAGTAAACAAATTTTCCTAATCTTTCTGTTCAAGCGCCATCTAC | 0.817 RPM ratio (pull-down/input)
5 | GATGATTGTTCTCCCAGCTGATGAATTAGAAGTGTCGAGTAAACAAATTTTCCTAATCTTTCTGTTCAAGCGCCATCTAC | 0.888 RPM ratio (pull-down/input)
6 | GATGATTGTTCTCCCAGCTGATGAATTATGAGCGTCGAGTAAACAAATTTTCCTAATCTTTCTGTTCAAGCGCCATCTAC | 1.03 RPM ratio (pull-down/input)
7 | GATGATTGTTCTCCCAGCTGATGAATTAGTACAGTCGAGTAAACAAATTTTCCTAATCTTTCTGTTCAAGCGCCATCTAC | 1.03 RPM ratio (pull-down/input)
8 | GATGATTGTTCTCCCAGCTGATGAATTGTCGCATTCGAGTAAACAAATTTTCCTAATCTTTCTGTTCAAGCGCCATCTAC | 1.31 RPM ratio (pull-down/input)
9 | GATGATTGTTCTCCCAGCTGATGAATTTCAGTCATCGAGTAAACAAATTTTCCTAATCTTTCTGTTCAAGCGCCATCTAC | 1 RPM ratio (pull-down/input)
10 | GATGATTGTTCTCCCAGCTGATGAATTTAGTCGATCGAGTAAACAAATTTTCCTAATCTTTCTGTTCAAGCGCCATCTAC | 1.04 RPM ratio (pull-down/input)
11 | GATGATTGTTCTCCCAGCTGATGAATTCATCACCTCGAGTAAACAAATTTTCCTAATCTTTCTGTTCAAGCGCCATCTAC | 1 RPM ratio (pull-down/input)
12 | GATGATTGTTCTCCCAGCTGATGAATTAACGTTATCGAGTAAACAAATTTTCCTAATCTTTCTGTTCAAGCGCCATCTAC | 1.08 RPM ratio (pull-down/input)
13 | GATGATTGTTCTCCCAGCTGATGAATTAGGATCGTCGAGTAAACAAATTTTCCTAATCTTTCTGTTCAAGCGCCATCTAC | 0.818 RPM ratio (pull-down/input)
14 | GATGATTGTTCTCCCAGCTGATGAATTTGTCGGATCGAGTAAACAAATTTTCCTAATCTTTCTGTTCAAGCGCCATCTAC | 0.944 RPM ratio (pull-down/input)
15 | GATGATTGTTCTCCCAGCTGATGAATTCTCACTCTCGAGTAAACAAATTTTCCTAATCTTTCTGTTCAAGCGCCATCTAC | 0.84 RPM ratio (pull-down/input)
16 | GATGATTGTTCTCCCAGCTGATGAATTTCTAACCTCGAGTAAACAAATTTTCCTAATCTTTCTGTTCAAGCGCCATCTAC | 0.836 RPM ratio (pull-down/input)
17 | GATGATTGTTCTCCCAGCTGATGAATTCACCCAGTCGAGTAAACAAATTTTCCTAATCTTTCTGTTCAAGCGCCATCTAC | 0.813 RPM ratio (pull-down/input)
18 | GATGATTGTTCTCCCAGCTGATGAATTCCCAGCATCGAGTAAACAAATTTTCCTAATCTTTCTGTTCAAGCGCCATCTAC | 0.962 RPM ratio (pull-down/input)
19 | GATGATTGTTCTCCCAGCTGATGAATTAACAGATTCGAGTAAACAAATTTTCCTAATCTTTCTGTTCAAGCGCCATCTAC | 0.964 RPM ratio (pull-down/input)
20 | GATGATTGTTCTCCCAGCTGATGAATTATTCCCCTCGAGTAAACAAATTTTCCTAATCTTTCTGTTCAAGCGCCATCTAC | 0.896 RPM ratio (pull-down/input)

Row | Sequence | binding signal
21 | GATGATTGTTCTCCCAGCTGATGAATTTCCCAGTTCGAGTAAACAAATTTTCCTAATCTTTCTGTTCAAGCGCCATCTAC | 0.864 RPM ratio (pull-down/input)
22 | GATGATTGTTCTCCCAGCTGATGAATTCGGTCGTTCGAGTAAACAAATTTTCCTAATCTTTCTGTTCAAGCGCCATCTAC | 0.868 RPM ratio (pull-down/input)
23 | GATGATTGTTCTCCCAGCTGATGAATTGGCGATCTCGAGTAAACAAATTTTCCTAATCTTTCTGTTCAAGCGCCATCTAC | 0.778 RPM ratio (pull-down/input)
24 | GATGATTGTTCTCCCAGCTGATGAATTGGTTGAATCGAGTAAACAAATTTTCCTAATCTTTCTGTTCAAGCGCCATCTAC | 1.01 RPM ratio (pull-down/input)
25 | GATGATTGTTCTCCCAGCTGATGAATTCTACAACTCGAGTAAACAAATTTTCCTAATCTTTCTGTTCAAGCGCCATCTAC | 0.871 RPM ratio (pull-down/input)
26 | GATGATTGTTCTCCCAGCTGATGAATTTATGGGGTCGAGTAAACAAATTTTCCTAATCTTTCTGTTCAAGCGCCATCTAC | 0.971 RPM ratio (pull-down/input)
27 | GATGATTGTTCTCCCAGCTGATGAATTTGTAATCTCGAGTAAACAAATTTTCCTAATCTTTCTGTTCAAGCGCCATCTAC | 1.23 RPM ratio (pull-down/input)
28 | GATGATTGTTCTCCCAGCTGATGAATTTTCACGATCGAGTAAACAAATTTTCCTAATCTTTCTGTTCAAGCGCCATCTAC | 0.874 RPM ratio (pull-down/input)
29 | GATGATTGTTCTCCCAGCTGATGAATTGCACTTGTCGAGTAAACAAATTTTCCTAATCTTTCTGTTCAAGCGCCATCTAC | 1.19 RPM ratio (pull-down/input)
30 | GATGATTGTTCTCCCAGCTGATGAATTTCGCCACTCGAGTAAACAAATTTTCCTAATCTTTCTGTTCAAGCGCCATCTAC | 0.882 RPM ratio (pull-down/input)
31 | GATGATTGTTCTCCCAGCTGATGAATTCGATCTTTCGAGTAAACAAATTTTCCTAATCTTTCTGTTCAAGCGCCATCTAC | 0.775 RPM ratio (pull-down/input)
32 | GATGATTGTTCTCCCAGCTGATGAATTCTATTTTTCGAGTAAACAAATTTTCCTAATCTTTCTGTTCAAGCGCCATCTAC | 1.61 RPM ratio (pull-down/input)
33 | GATGATTGTTCTCCCAGCTGATGAATTAACGTACTCGAGTAAACAAATTTTCCTAATCTTTCTGTTCAAGCGCCATCTAC | 0.897 RPM ratio (pull-down/input)
34 | GATGATTGTTCTCCCAGCTGATGAATTCCCTGAATCGAGTAAACAAATTTTCCTAATCTTTCTGTTCAAGCGCCATCTAC | 0.844 RPM ratio (pull-down/input)
35 | GATGATTGTTCTCCCAGCTGATGAATTAGCCGTATCGAGTAAACAAATTTTCCTAATCTTTCTGTTCAAGCGCCATCTAC | 0.934 RPM ratio (pull-down/input)
36 | GATGATTGTTCTCCCAGCTGATGAATTATTGTGCTCGAGTAAACAAATTTTCCTAATCTTTCTGTTCAAGCGCCATCTAC | 1.52 RPM ratio (pull-down/input)
37 | GATGATTGTTCTCCCAGCTGATGAATTTGCTCGCTCGAGTAAACAAATTTTCCTAATCTTTCTGTTCAAGCGCCATCTAC | 0.816 RPM ratio (pull-down/input)
38 | GATGATTGTTCTCCCAGCTGATGAATTTCACTCTTCGAGTAAACAAATTTTCCTAATCTTTCTGTTCAAGCGCCATCTAC | 0.814 RPM ratio (pull-down/input)
39 | GATGATTGTTCTCCCAGCTGATGAATTGTCCTGGTCGAGTAAACAAATTTTCCTAATCTTTCTGTTCAAGCGCCATCTAC | 0.988 RPM ratio (pull-down/input)
40 | GATGATTGTTCTCCCAGCTGATGAATTTCTTATTTCGAGTAAACAAATTTTCCTAATCTTTCTGTTCAAGCGCCATCTAC | 1.07 RPM ratio (pull-down/input)
